Among all 45,000 compounds or so, about 65 (0.1%) were called active. The call rests on the fitted dose curve; in most records, active means well fitted activation curve with a large enough effect; inconclusive means small, poorly fitted or top-dose-only effect; inactive means no such curve, though single readings can be large or run the other way. Some of the results follow.
biological target: Galactocerebrosidase (Homo sapiens) (UniProt P54803); experiment: A Novel Cell-Based Assay to Identify Small Molecules for B -Galactocerebrosidase; details: 145M-Twi-hGALC-G270D cells, HMU-beta-Gal fluorescence, 48 h; series mostly up to 57.5 µM; activation: at the top concentration; further: 0% is about no effect; nearly all actives have a fitted effect of over 65% in size
Chain of UniProt P54803 (P54803 whole entry, looked up): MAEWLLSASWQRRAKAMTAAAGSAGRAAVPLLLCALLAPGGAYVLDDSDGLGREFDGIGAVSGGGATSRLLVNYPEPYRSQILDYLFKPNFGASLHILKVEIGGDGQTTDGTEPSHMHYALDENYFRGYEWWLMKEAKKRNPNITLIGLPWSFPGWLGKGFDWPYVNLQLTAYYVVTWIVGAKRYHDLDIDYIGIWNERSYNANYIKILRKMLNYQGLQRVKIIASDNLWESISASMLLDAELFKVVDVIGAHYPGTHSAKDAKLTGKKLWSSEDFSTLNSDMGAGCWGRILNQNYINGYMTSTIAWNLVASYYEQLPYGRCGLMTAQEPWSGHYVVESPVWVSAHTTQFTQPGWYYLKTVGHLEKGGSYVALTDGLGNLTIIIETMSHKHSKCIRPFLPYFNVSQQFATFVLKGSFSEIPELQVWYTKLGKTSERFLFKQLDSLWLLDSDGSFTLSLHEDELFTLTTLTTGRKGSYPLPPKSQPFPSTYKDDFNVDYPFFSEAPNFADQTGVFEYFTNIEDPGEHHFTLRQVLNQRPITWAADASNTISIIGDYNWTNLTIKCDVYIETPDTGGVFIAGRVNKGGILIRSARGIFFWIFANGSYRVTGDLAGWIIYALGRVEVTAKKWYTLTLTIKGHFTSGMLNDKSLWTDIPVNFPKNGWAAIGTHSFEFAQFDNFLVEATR
How it was run: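 qHTS, 1536-well; 145M-Twi-hGALC-G270D cells (WT line also made) in DMEM/F12 + 10% FBS; compound incubation on live cells; HMU-β-gal 0.1 mM final, pH 5.2, NaTC; carbonate stop; fluorescence increase = enhanced residual activity.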

activation, inactive:
O=C(NCc1ccc(F)cc1)c1ccc(CSc2nc3ccncc3n2Cc2ccc(F)cc2)cc1 -11.4%
CCc1cccc(C)c1NS(=O)(=O)c1c(C(=O)N2CCCCCC2)c(C)n(C)c1C -12.3%
Cc1ccc(Cl)cc1N1CCN(C(=O)CN2C(=O)COc3ccc(S(=O)(=O)N4CCOCC4)cc32)CC1 -17.7%
COc1ccc(Cl)cc1NC(=O)Cn1nnc2sc3c(c2c1=O)CCC(C(C)(C)C)C3 (stereo not drawn) 0.63%
Cc1cc(C)c(Cn2c3ccccc3c3cnn(CC(=O)NCCc4ccccc4)c(=O)c32)c(C)c1 8.01%
CCOC(=O)c1c(Nc2cccc(O)c2)nnc(-c2ccccc2)c1-c1ccccc1 -41.9%
O=C(Nc1nnc(S(=O)(=O)N2CCCCCC2)s1)c1ccc(Br)cc1 -11.2%
COc1c(Cl)cc(C(=O)Nc2cccc(-c3nc4ccccc4[nH]3)c2)cc1Cl -5.49%
CC(=O)c1ccc(NC2=NS(=O)(=O)c3ccccc32)cc1 -31.9%
COc1ccc(CCNC(=O)c2ccc3c(c2)CCN3S(=O)(=O)c2ccc(Cl)cc2)cc1 -8.49%
Cc1ccc(NC(=O)Cn2cc(S(=O)(=O)c3ccc(F)cc3)c(=O)c3cc4c(cc32)OCO4)cc1 -15.9%
Cc1ccc(NC(=O)CSc2nccn2C2CCCC2)cc1 -5.31%
COc1ccc(NC(=O)C2CCCN(S(=O)(=O)c3cn(C)cn3)C2)cc1Cl (stereo not drawn) -4.82%
COCCNC(=O)Cn1c(=O)n(Cc2ccc(C(=O)NCCc3ccc(OC)c(OC)c3)cc2)c(=O)c2ccccc21 23.7%
COc1cc(Cl)c(C)cc1NC(=O)CCCN1C(=O)C(c2ccccc2)Oc2cccnc21 (stereo not drawn) -27.7%
Cc1cccc(Oc2nc3ccccn3c(=O)c2/C=C(\C#N)c2nc3ccccc3s2)c1C -9.68%
COc1ccc(-n2c3c(c(=O)[nH]c2=O)C(NC(C)=O)(C(F)(F)F)C(=O)N3)cc1 (stereo not drawn) -29.1%
CCOc1ccccc1C1CC(=O)NC(C)=C1C(=O)OC1CCCCCC1 (stereo not drawn) -8.17%
CC(C)(C)C(=O)Cn1c(=O)n(CCCCCC(=O)NCc2ccc3c(c2)OCO3)c(=O)c2sccc21 -13.7%
COc1ccc(OC)c(NC(=O)c2ccc(-c3nc(CSc4ccccc4)c(C)o3)cc2)c1 -18.1%
CSc1cccc(NS(=O)(=O)c2ccc3[nH]cc(C(=O)N4CCCC4)c(=O)c3c2)c1 -8.99%
COc1ccccc1CCNC(=O)c1ccc(NC(=O)N2CC(C)Sc3ccccc32)cc1 (stereo not drawn) -6.58%
CCCCn1cc(S(=O)(=O)c2ccc(CC)cc2)c(=O)c2cc(F)c(N3CCCC(C)C3)cc21 (stereo not drawn) -26%
Cc1ccc(C(=O)CSc2nc3cc(C(=O)NC4CCCC4)ccc3c(=O)n2CC2CCCO2)cc1 (stereo not drawn) -1.46%
COc1cc(OC)c(NC(=O)c2c(C)nn(-c3ccc(C)cc3)c2-n2cccc2)cc1Cl 15%
COc1ccc(C(=O)NCCn2cc(SCC(=O)Nc3ccccc3)c3ccccc32)cc1OC -31.2%
Cc1ccc2nc(-c3ccc(Cl)c(NC(=O)c4cccnc4)c3)oc2c1 -6.17%
CN(C(=O)c1cc2c(=O)oc3ccccc3c2s1)c1ccc(F)cc1 -14.5%
CC(=O)N1CCCc2cc(S(=O)(=O)N3CCCCC3)ccc21 -19%
CCOc1ccccc1CNC(=O)c1cc2c(=O)n(Cc3ccccc3)ccc2nc1C 4.56%
Oc1ccc(Cl)c2cccnc12 -10%
CCOc1ccc(NC(=O)CSc2nccn2-c2cccc(C)c2C)cc1 -0.735%
Cc1ccc(Cl)cc1N1CCN(C(=O)C2CCCN(S(=O)(=O)c3ccc(Br)s3)C2)CC1 (stereo not drawn) -13.3%
COc1ccccc1NC(=O)CCn1cnc2ccccc2c1=O -17.7%
O=S(=O)(NCC(c1ccco1)S(=O)(=O)c1cccs1)c1ccc(F)c(C(F)(F)F)c1 (stereo not drawn) -17.6%
CCOC(=O)C1CCN(S(=O)(=O)c2cc(-c3onc(C)c3C)ccc2OC)CC1 -9.63%
Cc1ccc(OCC(=O)NCC(=O)OCc2cc(=O)n3nc(C)sc3n2)cc1 -19.4%
CCCCn1c2ccc(F)cc2c2nnc(SCCN3CCCCC3)nc21 -8.09%
COc1ccc(CNC(=O)c2ccc3c(c2)N(Cc2cccc(Cl)c2)C(=O)c2ccccc2S3)c(OC)c1 -8.28%
CC(C)c1ccc(NC(=O)CSC2=Nc3ccccc3C3=NC(CC(=O)NCc4ccc(F)cc4)C(=O)N23)cc1 (stereo not drawn) -16.2%
CCc1ccccc1NC(=O)Cn1c(=O)c2cccn2c2ccc(F)cc21 -8.99%
COc1ccc(CCNC(=O)CSc2ncc3c(n2)-c2cc(Cl)ccc2N(Cc2ccccc2)S3(=O)=O)cc1OC 4.62%
Cc1ccc(CNC(=O)c2nc(SCc3ccc(C)cc3)ncc2Cl)cc1 -14.3%
Cc1cccn2c(Nc3ccccc3)c(-c3ccc(N4CCOCC4)cc3)nc12 -29.3%
Cc1ccc(-n2c(=O)c3cccnc3n2CC(=O)Nc2cccc(C)c2C)cc1 -18.7%
CC(C)c1ccc(OC(=O)c2cc(-c3ccc4c(c3)OCCO4)on2)cc1 -10.7%
COCCCNC(=O)CCn1c(=O)c2ccccc2n(CC(=O)Nc2c(C)cc(C)cc2C)c1=O 0.0892%
COc1cccc2sc(N(Cc3cccnc3)C(=O)COc3ccccc3)nc12 -9.82%
Cc1nn(-c2ccccc2)c(OC(=O)c2ccccc2F)c1S(=O)(=O)c1ccccc1 -7.64%
CCOc1ccc(C(=O)Nc2nnc(SCc3cc(=O)c4cc(C)ccc4[nH]3)s2)cc1 -11.6%
CCC(=O)c1ccc(O)cc1 -8.64%
CCn1c(=O)c2cc(C(=O)N3CCN(c4cccc(Cl)c4)CC3)sc2c2ccccc21 -17.4%
CCN(CC)S(=O)(=O)c1ccc2c(c1)nc(CN(C)C(=O)c1cccc(Cl)c1)n2C -0.384%
COc1ccc(CCNC(=O)C2=C(C)C(=O)OC23CCCCC3)c(OC)c1OC -8.88%
CC1CCN(S(=O)(=O)c2ccc3c(c2)N(CC(=O)NCCCN2CCCCC2C)C(=O)CS3)CC1 (stereo not drawn) -8.81%
COc1cccc(N2CCN(C(=O)c3cccc(NC(=O)c4nsc5ccccc45)c3)CC2)c1 -14%
Cc1sc2c(c1C)c(=O)n(CCc1ccccc1)c(=O)n2Cc1ccccc1Cl -10.9%
COc1cc(CN(C(=O)c2ccccc2[N+](=O)[O-])c2ccccn2)cc(OC)c1OC 0.109%
Cc1ccc(C)c(NC(=O)CSc2nc(=O)n(CCN(C)C)c3c2CCC3)c1 -11%
CCc1ccccc1NC(=O)Nc1cc(C(=O)NCc2ccc(C(C)C)cc2)ccc1N1CCCC1 -11.1%
Cc1cc(NC(=O)c2ccc3c(c2)N(Cc2cccc(Cl)c2)C(=O)c2ccccc2S3=O)ccc1Br (stereo not drawn) -2.12%
CCc1ccc(NC(=O)CCS(=O)(=O)c2ccc3c(c2)CCN3C(C)=O)cc1 -0.835%
CC1CCCN(Cc2c(O)ccc3c(=O)c(Oc4ccccc4Cl)c(C(F)(F)F)oc23)C1 (stereo not drawn) -8.66%
Cc1ccc(S(=O)(=O)c2cn(Cc3ccccc3F)c3cc4c(cc3c2=O)OCO4)cc1 -3.71%
COc1ccc(OC)c(CNC(=O)C2CCN(S(=O)(=O)c3cn(C)cn3)CC2)c1 -14.7%
COc1cc(Cl)c(C)cc1NC(=O)c1cc(CN2CCOCC2)on1 -14.3%
CCC1CN(S(=O)(=O)c2cc(-c3cc(C)no3)ccc2OC)c2cc(C)ccc2O1 (stereo not drawn) -3.47%
COc1ccc(-c2ccc(CNc3ccc4[nH]c(=O)[nH]c4c3)o2)cc1Cl -1.13%
Cn1cnnc1SCC(=O)Nc1cc(C(=O)O)cc(C(=O)O)c1 -14.3%
COc1ccc(NC(=O)c2sc3nc4c(cc3c2N)CN(C(C)C)CC4)c(OC)c1 -17.3%
Cc1cccc(C(=O)NCC(c2ccc3c(c2)OCO3)N2CCN(c3ccccc3F)CC2)c1 (stereo not drawn) -8.16%
COc1cc(-c2noc(CSc3nc(-c4ccccc4)cc(=O)[nH]3)n2)cc(OC)c1OC -8.27%
Cc1cc(=O)n2[nH]c(NCc3ccc(F)cc3)nc2n1 -2.41%
Cc1ccc(-n2nc(C)c3c(C)cc(=O)n(CC(=O)Nc4ccc(Br)cc4F)c32)cc1 -5.15%
COc1ccc(S(=O)(=O)c2c(Nc3ccc(C)cc3)sc(C(=O)c3ccc(C)cc3)c2N)cc1 -22.9%
CCc1ccc(Oc2nc3c(C)cccn3c(=O)c2/C=C(\C#N)c2nc3ccccc3[nH]2)cc1 -19.9%
O=C(CCCn1c(=O)c2cccn2c2ccc(F)cc21)NCCc1ccccc1 4.38%
CCOC(=O)CSc1nc2ccc(NC(=O)c3ccc(F)cc3)cc2s1 3.76%
Cc1ccc(Cl)cc1NC(=O)Nc1c(C)n(C)n(-c2ccccc2)c1=O -9.85%
CCOC(=O)c1cccc(NC(=O)CCc2c(C)nc3cc(-c4ccc(Cl)cc4)nn3c2C)c1 -10.9%
CCc1nnc(SCC(=O)N(C)c2ccccc2)c2cc3sccc3n12 -6.56%
Cc1ccc(CSCC(=O)NCc2ccc(F)cc2)cc1 -7.66%
CCOc1ccccc1Nc1nc(-c2cccc(Cl)c2)c2c(n1)-c1ccccc1OC2 -10.8%
COc1ccc(NC(=O)Cn2cc(S(=O)(=O)c3ccc(C)cc3)c(=O)c3ccccc32)cc1OC -10.3%
COc1ccc(-c2noc(-c3ccc(NCc4ccco4)c([N+](=O)[O-])c3)n2)cc1 -9.72%
CCCn1c(=O)n(-c2cc(Cl)c(OC)cc2OC)c(=O)c2c3c(sc21)CN(C(C)=O)CC3 -17.6%
CC1=C(C(=O)Nc2cccnc2)C(c2cccc(O)c2)n2nc(SCc3ccccc3)nc2N1 (stereo not drawn) 2.23%
Cc1ccc(Nc2nnc(-c3ccc(C)c(S(=O)(=O)N4CCN(C)CC4)c3)c3ccccc23)c(C)c1 -8.67%
Cc1ccc([C@H]2Nc3ccc(S(=O)(=O)Nc4cccc(Cl)c4C)cc3[C@H]3C=CC[C@H]32)cc1 -7.42%
CCn1cc(CCC(=O)NCc2ccc(F)cc2)c2ccccc21 -8.16%
CCOc1ccc(C(=O)NCCc2csc(-c3ccc(C(F)(F)F)cc3)n2)cc1OCC -9.13%
COc1ccc(C(=O)N2CCC(c3nc4ccccc4o3)CC2)cc1 5.11%
COc1ccc(OC)c(NC(=O)Cn2cnc3sc(C)c(S(=O)(=O)N4CCN(c5ccccc5OC)CC4)c3c2=O)c1 -4.55%

— PubChem BioAssay AID1159614 (National Center for Advancing Translational Sciences (NCATS), 2016)
